# Literature values, collected in publication PMC11006913.
# The list shows a part of the results.
# What was measured:
# Conditions in all cases: PBM; conditions not shown; double strand, one strand shown; scale: upbm affinity estimate (log intensity, higher = more binding, comparable within an allelic series)
# [1] = molecular target: PITX2 L100Q (Homo sapiens) (UniProt Q99697)
# [2] = molecular target: PITX2 R108H (Homo sapiens) (UniProt Q99697)
# [3] = molecular target: PITX2 R130W (Homo sapiens) (UniProt Q99697)
# [4] = molecular target: PITX2 T114P (Homo sapiens) (UniProt Q99697)
# [5] = molecular target: PROP1 R112Q (Homo sapiens) (UniProt O75360)
# [6] = molecular target: PROP1 R99Q (Homo sapiens) (UniProt O75360)
sequence,measurement,setting,value
AATAAGCG [8-mer AATAAGCG],binding signal,[1],9.38
same,binding signal,[2],8.62
same,binding signal,[3],8.46
same,binding signal,[4],8.51
GCGGCCAC [8-mer GCGGCCAC],binding signal,[1],7.93
same,binding signal,[2],8
same,binding signal,[3],7.87
same,binding signal,[4],7.99
same,binding signal,[5],11
same,binding signal,[6],11
GTGATTAA [8-mer GTGATTAA],binding signal,[1],10.9
same,binding signal,[2],9.28
same,binding signal,[3],8.77
same,binding signal,[4],9.49
GCGCCGCC [8-mer GCGCCGCC],binding signal,[1],8.07
same,binding signal,[2],7.93
same,binding signal,[3],7.86
same,binding signal,[4],7.96
GCTTTGTA [8-mer GCTTTGTA],binding signal,[1],9.45
same,binding signal,[2],8.62
same,binding signal,[3],8.52
same,binding signal,[4],8.63
CGTTGGCC [8-mer CGTTGGCC],binding signal,[1],8.32
same,binding signal,[2],8.16
same,binding signal,[3],8.08
same,binding signal,[4],8.2
GAGGATTA [8-mer GAGGATTA],binding signal,[1],11.6
same,binding signal,[2],9.8
same,binding signal,[3],8.62
same,binding signal,[4],10.3
AACTAATC [8-mer AACTAATC],binding signal,[1],10.9
same,binding signal,[2],9.24
same,binding signal,[3],8.69
same,binding signal,[4],9.51
GGATTACA [8-mer GGATTACA],binding signal,[1],11.3
same,binding signal,[2],9.5
same,binding signal,[3],8.7
same,binding signal,[4],9.84
GTCGCCGA [8-mer GTCGCCGA],binding signal,[1],8.11
same,binding signal,[2],8.11
same,binding signal,[3],8.12
same,binding signal,[4],8.15
CAGGATTA [8-mer CAGGATTA],binding signal,[1],11.3
same,binding signal,[2],9.4
same,binding signal,[3],8.5
same,binding signal,[4],9.89
ACGGGCCC [8-mer ACGGGCCC],binding signal,[1],8.15
same,binding signal,[2],7.96
same,binding signal,[3],7.8
same,binding signal,[4],8.01
same,binding signal,[5],10.9
same,binding signal,[6],10.9
GATTAAGC [8-mer GATTAAGC],binding signal,[1],11
same,binding signal,[2],9.24
same,binding signal,[3],8.49
same,binding signal,[4],9.45
GAGAGGGC [8-mer GAGAGGGC],binding signal,[1],8.21
same,binding signal,[2],7.94
same,binding signal,[3],7.89
same,binding signal,[4],8.01
ATTAGCCG [8-mer ATTAGCCG],binding signal,[1],9.57
same,binding signal,[2],8.59
same,binding signal,[3],8.46
same,binding signal,[4],8.67
GGGTACCC [8-mer GGGTACCC],binding signal,[1],8.68
same,binding signal,[2],8.16
same,binding signal,[3],7.96
same,binding signal,[4],8.26
GCAGCGAC [8-mer GCAGCGAC],binding signal,[1],8.14
same,binding signal,[2],8.03
same,binding signal,[3],7.99
same,binding signal,[4],8.06
ACTAATCC [8-mer ACTAATCC],binding signal,[1],11.7
same,binding signal,[2],9.84
same,binding signal,[3],8.55
same,binding signal,[4],10.4
GGACCGAC [8-mer GGACCGAC],binding signal,[1],8.33
same,binding signal,[2],8.17
same,binding signal,[3],8
same,binding signal,[4],8.11
CACTGCCC [8-mer CACTGCCC],binding signal,[1],8.42
same,binding signal,[2],8.21
same,binding signal,[3],8.18
same,binding signal,[4],8.26
GCGTCGCC [8-mer GCGTCGCC],binding signal,[1],8.33
same,binding signal,[2],8.06
same,binding signal,[3],8
same,binding signal,[4],8.07
GCTGCGCC [8-mer GCTGCGCC],binding signal,[1],8.02
same,binding signal,[2],7.87
same,binding signal,[3],7.93
same,binding signal,[4],7.93
CACGCCCC [8-mer CACGCCCC],binding signal,[1],8.18
same,binding signal,[2],8.11
same,binding signal,[3],7.95
same,binding signal,[4],8.2
ACCGCACC [8-mer ACCGCACC],binding signal,[1],8.2
same,binding signal,[2],8.09
same,binding signal,[3],7.99
same,binding signal,[4],8.15
AAGATTAT [8-mer AAGATTAT],binding signal,[2],9.27
same,binding signal,[4],9.42
AAAGCCCC [8-mer AAAGCCCC],binding signal,[2],8.3
AAGATCCC [8-mer AAGATCCC],binding signal,[2],8.38
CTTAATTC [8-mer CTTAATTC],binding signal,[2],9.22
GATTAAAA [8-mer GATTAAAA],binding signal,[1],10.8
same,binding signal,[2],9.38
same,binding signal,[4],9.55
GCAAAGCC [8-mer GCAAAGCC],binding signal,[2],8.18
AGATCCCC [8-mer AGATCCCC],binding signal,[2],8.28
CCTAAGCC [8-mer CCTAAGCC],binding signal,[2],8.57
GATAAGAA [8-mer GATAAGAA],binding signal,[2],8.83
same,binding signal,[3],8.6
same,binding signal,[4],8.79
CTGATCCC [8-mer CTGATCCC],binding signal,[2],8.47
ACGGTAAT [8-mer ACGGTAAT],binding signal,[2],8.74
same,binding signal,[3],8.59
same,binding signal,[4],8.73
CCGGCTTA [8-mer CCGGCTTA],binding signal,[2],8.54
ATCCCCTA [8-mer ATCCCCTA],binding signal,[2],8.75
same,binding signal,[3],8.52
same,binding signal,[4],8.77
TGATCCCA [8-mer TGATCCCA],binding signal,[2],8.58
ACCACGCC [8-mer ACCACGCC],binding signal,[1],8.16
same,binding signal,[2],8.29
same,binding signal,[3],8.1
same,binding signal,[4],8.29
same,binding signal,[5],11
same,binding signal,[6],11
CCGGACCG [8-mer CCGGACCG],binding signal,[1],8.24
same,binding signal,[2],7.9
same,binding signal,[3],7.72
same,binding signal,[4],7.96
same,binding signal,[5],10.9
same,binding signal,[6],10.9
CTAAAGCC [8-mer CTAAAGCC],binding signal,[2],8.58
GGCTTACC [8-mer GGCTTACC],binding signal,[2],8.44
GGGTATTA [8-mer GGGTATTA],binding signal,[4],9.44
AAGTCTAA [8-mer AAGTCTAA],binding signal,[2],8.7
same,binding signal,[3],8.56
same,binding signal,[4],8.67
CTAAGCTC [8-mer CTAAGCTC],binding signal,[2],8.46
GTATTAGA [8-mer GTATTAGA],binding signal,[1],10.3
same,binding signal,[3],8.84
ATATAATC [8-mer ATATAATC],binding signal,[4],9.54
CGGTTTTA [8-mer CGGTTTTA],binding signal,[2],8.53
same,binding signal,[3],8.42
same,binding signal,[4],8.54
GGGCTTTA [8-mer GGGCTTTA],binding signal,[2],8.39
GGGATCAC [8-mer GGGATCAC],binding signal,[2],8.44
ATGCAATA [8-mer ATGCAATA],binding signal,[5],11.8
AGGTATTA [8-mer AGGTATTA],binding signal,[4],9.49
CTATAATA [8-mer CTATAATA],binding signal,[2],8.82
same,binding signal,[3],8.72
CGGCCCCA [8-mer CGGCCCCA],binding signal,[1],8.21
same,binding signal,[2],7.99
same,binding signal,[3],7.91
same,binding signal,[4],8.02
same,binding signal,[5],10.9
same,binding signal,[6],11
GATTAGTA [8-mer GATTAGTA],binding signal,[1],10.8
same,binding signal,[4],9.48
GATTATAA [8-mer GATTATAA],binding signal,[4],9.56
GAGGCTTA [8-mer GAGGCTTA],binding signal,[2],8.66
GGGGATCA [8-mer GGGGATCA],binding signal,[2],8.57
AATAATGC [8-mer AATAATGC],binding signal,[1],9.87
same,binding signal,[3],8.8
CACTAATC [8-mer CACTAATC],binding signal,[1],10.8
same,binding signal,[4],9.41
CGGCTTAG [8-mer CGGCTTAG],binding signal,[2],8.59
CCTGATCC [8-mer CCTGATCC],binding signal,[2],8.38
ATCTAATC [8-mer ATCTAATC],binding signal,[4],9.41
GTAAGCCA [8-mer GTAAGCCA],binding signal,[2],8.5
GCGGCACC [8-mer GCGGCACC],binding signal,[5],10.9
same,binding signal,[6],11
